Assay results: PubChem BioAssay AID504832 (National Center for Advancing Translational Sciences (NCATS), 2011)
The whole screen tested about 310,000 compounds, of which about 18,000 (5.8%) were called active. Inconclusive results, whose numbers are uncertain, are shown with a selection of clear calls. Calls follow the shape of the dose curve; as a rule, active = well fitted inhibition curve with a large enough effect; inconclusive = small, poorly fitted or top-dose-only effect, or another doubt; inactive = no such curve, though single readings can be large or run the other way. Potencies of inconclusive entries are left out as doubtful fits.

Assay: Primary qHTS for delayed death inhibitors of the malarial parasite plastid, 48 hour incubation
Conditions: P. falciparum luciferase growth in erythrocytes; series mostly up to 28.7 µM
Method in brief: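 Compounds are pin-transferred into medium, infected erythrocytes (2% hematocrit, 0.1% parasitemia final) are added, and plates sit one parasite generation at 37 C in 5% CO2. Detection reagent is then added and luminescence measured.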
Potency is read from the fitted curve at half-maximal effect; tags tell the direction and shape of the fitted curve.

SMILES	Potency
COc1ccc(NC(=O)C2CCN(S(=O)(=O)c3ccc(OC)c(OC)c3)CC2)c(OC)c1	inconclusive [inhibitor, partial curve]
NS(=O)(=O)c1ccc(N=Nc2ccc(=O)[nH]c2O)cc1	inconclusive [inhibitor, single point]
CCN(c1ccccc1)S(=O)(=O)c1ccc(Cl)c(NC(=O)CN(C)C2CCN(C)CC2)c1	inconclusive [inhibitor, single point]
O=C(CN1CCOC1=O)N1CCCC(N2CCN(c3cccc(C(F)(F)F)c3)CC2)C1 (centres undefined)	inactive
Cc1ccccc1C(=O)Nc1ccccc1NC(=O)c1ccccc1Br	inconclusive [inhibitor, partial curve, poor fit]
CC1CCN(c2ccc(C(=O)Nc3ccc4c(c3)OCO4)cc2[N+](=O)[O-])CC1	inconclusive [inhibitor, partial curve]
COc1cc2c(cc1OC)C(COc1cc(C)cc(C)c1)N(C(C)=O)CC2 (centres undefined)	inconclusive [inhibitor, single point]
CC(C)OC(=O)c1ccc(NC(=O)c2cccc(-n3cnnn3)c2)cc1	active: 11.7 µM
COc1ccc(-c2csc(N3CCN(Cc4ccc5c(c4)OCO5)CC3)n2)cc1	inconclusive [inhibitor, single point]
COc1ccc(-c2nc(CN3CCN(Cc4cccc(F)c4)CC3)c(C)o2)cc1	inconclusive [inhibitor, single point]
CC1=NN(c2ccccc2)C(=O)/C1=C/c1c(O)n(-c2ccc(F)cc2)[nH]c1=O	inactive
O=[N+]([O-])c1cc2oc3c(c2c(C=NCc2ccncc2)c1O)CCCC3	active: 10.4 µM
NC(=O)c1ccc(N2CCCCC2)c(N2C(=O)C3C4C=CC(C4)C3C2=O)c1 (centres undefined)	inconclusive [inhibitor, partial curve]
CC(C)Cn1c(CN2CCN(c3ccccc3F)CC2)nc2c1c(=O)[nH]c(=O)n2C	inactive
COc1cc(/C=C(\C#N)c2nc(-c3cc4ccccc4oc3=O)cs2)ccc1O	inactive
Cc1ccc(NC(=O)CN(C)S(=O)(=O)c2cccc3cccnc23)cc1F	inconclusive [inhibitor, single point]
COc1ccc(S(=O)(=O)N2CCN(C)CC2)cc1NC(=O)c1ccccc1	inactive
CCOc1cc(N2CCOCC2)c(OCC)cc1NC1=NCCCCC1	inconclusive [inhibitor, single point]
COc1cccc(NC(=O)c2ccccc2Oc2ccccc2)c1	inactive
Clc1ccccc1CSc1nnc(-c2ccco2)c(-c2ccco2)n1	inconclusive [inhibitor, single point]
COC(=O)Cc1c(C)c2ccc(OCC(=O)c3ccc(OC)c(OC)c3)cc2oc1=O	inconclusive [inhibitor, single point]
O=c1c2ccccc2nc(/C=C/c2c[nH]c3ccccc23)n1CCO	inconclusive [inhibitor, single point]
CCOc1ccc(-c2[nH]ncc2-c2ccc(OC)c(OC)c2)c(O)c1	inconclusive [inhibitor, single point]

SMILES	Potency
COc1ccc(C[C@H]2c3cc(O)c(OC)cc3CC[N+]2(C)[O-])cc1O (some centres undefined)	inconclusive [inhibitor, single point]
CC(C)n1ncc2c(C(=O)NCc3cccnc3)cc(C3CC3)nc21	inconclusive [inhibitor, single point]
Cc1ccc(OCC(=O)Nc2ccc3c(c2)nc2n3CCOC2)cc1	inconclusive [inhibitor, full curve, poor fit]
NC(=S)N=Nc1c(O)n(Cc2ccc(Br)cc2)c2ccccc12	inconclusive [inhibitor, single point]
CCCCCC(=O)N1CC2(CC)CN(C(=O)CCCCC)CC(CC)(C1)C2=O	inconclusive [inhibitor, partial curve]
O=C(N/N=C1\CC2CC=CC12)c1ccc(COc2ccccc2)cc1 (centres undefined)	inactive
CCOc1ccc(-c2ncncc2-c2ccc(OC)cc2)c(O)c1	active: 7.38 µM
COc1ccc(C2C=C(C)Nc3nc4ccccc4n32)cc1 (centres undefined)	inactive
Cc1ccc(C(=O)N2CCN(c3cc(=O)[nH]nc3-c3ccccc3)CC2)cc1	inconclusive [inhibitor, partial curve, poor fit]
Cc1cc(C(=O)CN2C(=O)C(=O)N(C3CCCC3)C2=O)c(C)n1CCc1ccccc1	inconclusive [inhibitor, single point]
Cc1ccc(C)n1-n1cnc2sc(-c3ccccc3)cc2c1=O	inconclusive [inhibitor, partial curve]
Cc1snc(SCc2c(F)cccc2Cl)c1C#N	inconclusive [inhibitor, full curve, poor fit]
Oc1ccc(N2CCN(Cc3cc4c(cc3Br)OCCO4)CC2)cc1	active: 11.7 µM
CNC(=S)N1C2CCC1CC(NC(=O)NC13CC4CC(CC(C4)C1)C3)C2 (centres undefined)	active: 11.7 µM
COc1ccccc1N1CCN(CC(=O)c2c(C)[nH]c3ccccc23)CC1	inconclusive [inhibitor, single point]
O=C(N/N=C/c1ccncc1)c1ccc(OCc2ccccc2)cc1	inconclusive [inhibitor, single point]
Cc1cc2c(cc1C)CSC(c1ccccc1O)SC2	inactive
Cc1cc(C)c(NC(=O)C2=COCCO2)c(C)c1	inactive
C/C(Cl)=C\Cn1c(N2CCCC2)nc2c1c(=O)n(C)c(=O)n2C	inconclusive [inhibitor, partial curve, poor fit]
Cc1ccc2nc(-c3cccc(-c4cccc(Cl)c4)c3)c(NCc3ccccc3)n2c1	active: 7.38 µM
S=C(NC1CCCCC1)N(CCc1ccccc1)CCc1ccccc1	inconclusive [inhibitor, single point]
CCOC(=O)CC1=C(C(=O)OCC)C(c2cccnc2)C(C#N)=C(N)O1 (centres undefined)	inconclusive [inhibitor, partial curve, poor fit]
COc1ccccc1OCC(=O)Nc1ccc(S(=O)(=O)N2CCN(C)CC2)cc1	inactive

SMILES	Potency
O=S(=O)(c1c(F)cccc1F)N1CCCC2CCCCC21 (centres undefined)	inconclusive [inhibitor, single point]
COc1cccc2sc(Nc3nc(-c4cc5ccccc5oc4=O)cs3)nc12	inconclusive [inhibitor, single point]
Cc1ccc(-n2c3c(c(=O)[nH]c2=O)C(NS(=O)(=O)c2ccc(C)cc2)(C(F)(F)F)C(=O)N3)cc1 (centres undefined)	inconclusive [inhibitor, full curve]
COc1cc(CCC(=O)N2CCN(S(=O)(=O)c3ccc(C)c(C)c3)CC2)cc(OC)c1OC	inconclusive [inhibitor, partial curve]
CCC(=O)Nc1c2c(nn1-c1ccccc1)CSC2	inactive
CSc1ccc(CN(C)C(=O)c2cc(S(=O)(=O)NCc3ccccc3)ccc2C)cc1	inconclusive [inhibitor, single point]
Cc1onc(-c2c(F)cccc2Cl)c1C(=O)OCC(=O)NC(N)=O	inactive
Cc1cc(C(=O)N[C@H](c2ccccc2)[C@@]2(C)C[C@@H]2[C@@H](C)C(=O)Nc2ccc3ccccc3c2)no1	inconclusive [inhibitor, partial curve]
CC(Nc1ccc(F)cc1F)C(=O)NC(=O)NC1CCCCC1 (centres undefined)	inactive
Cc1c(N2C(=O)C3C4C=CC(C4)C3C2=O)c(=O)n(-c2ccccc2)n1C (centres undefined)	inactive
CCn1cc(C(=O)O)c(=O)c2cnc(N3CCN(C(=S)Nc4ccccc4)CC3)nc21	active: 0.117 µM
COc1ccccc1C(=O)C1CCCN(C(=O)C2=CC(=O)CC(C)(C)O2)C1 (centres undefined)	inconclusive [inhibitor, single point]
O=C(NCCc1ccc(Cl)cc1)c1ccc(Cn2c(=O)[nH]c3ccccc3c2=O)cc1	inconclusive [inhibitor, partial curve, poor fit]
CS(=O)(=O)c1nc(S(=O)(=O)c2ccc(Cl)cc2)c(N2CCOCC2)s1	inconclusive [inhibitor, partial curve, poor fit]
COc1cc(/C=C(/C#N)c2nc3ccccc3[nH]2)ccc1OCC(=O)Nc1ccccc1C	inconclusive [inhibitor, partial curve]
O=C(Cc1ccc(S(=O)(=O)N2CCOCC2)s1)NCCOc1ccccc1F	inconclusive [inhibitor, single point]
COc1cc(-c2nc(-c3ccccc3)c(-c3cc([N+](=O)[O-])ccc3C)[nH]2)cc(OC)c1OC	active: 2.62 µM
CN(C)C(=S)SCCn1c(N)nc(N(C)C)nc1=O	inactive
O=C1OCC/C1=C\OCCCO/C=C1\CCOC1=O	inactive
O=C(Nc1ccccc1SCC1CSc2nc3ccccc3c(=O)n21)c1cccc(Cl)c1 (centres undefined)	active: 10.4 µM
COc1cccc(CN2CCC(n3nccc3NC(=O)CCCc3ccccc3)CC2)c1	inconclusive [inhibitor, single point]
CCCCn1c(N)c(N(CCC(C)C)C(=O)c2c(C)noc2C)c(=O)[nH]c1=O	inactive
Cc1nc2cc(OCc3cc(C(=O)NC(C)c4cnn(C)c4)no3)ccc2s1 (centres undefined)	inconclusive [inhibitor, single point]
